Measurements reported in publication PMC3492284.
These are yes or no findings as the source states them, for the method shown. In cells and extracts the contact can be indirect. Where a sequence is shown, tags or fusion partners need not be part of it.

Biological target: T1, HA-epitope tagged Cbl-c, full length (UniProt Q9ULV8)
T1 sequence: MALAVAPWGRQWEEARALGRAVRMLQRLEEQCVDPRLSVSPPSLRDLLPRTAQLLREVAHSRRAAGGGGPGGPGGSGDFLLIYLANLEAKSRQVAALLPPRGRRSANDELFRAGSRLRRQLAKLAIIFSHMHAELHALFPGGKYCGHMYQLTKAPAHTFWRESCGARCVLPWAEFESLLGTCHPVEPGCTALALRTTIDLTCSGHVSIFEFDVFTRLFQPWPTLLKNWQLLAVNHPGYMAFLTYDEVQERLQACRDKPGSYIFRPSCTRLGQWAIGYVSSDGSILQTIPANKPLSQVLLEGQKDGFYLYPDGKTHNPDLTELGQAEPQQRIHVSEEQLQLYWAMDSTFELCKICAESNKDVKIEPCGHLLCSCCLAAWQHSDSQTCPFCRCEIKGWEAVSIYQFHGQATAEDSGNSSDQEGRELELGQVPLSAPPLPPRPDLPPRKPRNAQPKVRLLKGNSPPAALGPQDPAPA
Assay: co-IP; HEK293T cells co-transfected; 200 µg lysate protein; HA-tagged Cbl proteins precipitated with HA-affinity matrix overnight at 4°C; lysis buffer 10 mM Tris-HCl pH 7.5, 150 mM NaCl, 5 mM EDTA, 1% Triton X-100, 10% glycerol; blot for Hic-5 or Trip-6

B1: Trip-6, full-length cDNA (protein, UniProt Q15654 1-476)
chain: MSGPTWLPPKQPEPARAPQGRAIPRGTPGPPPAHGAALQPHPRVNFCPLPSEQCYQAPGGPEDRGPAWVGSHGVLQHTQGLPADRGGLRPGSLDAEIDLLSSTLAELNGGRGHASRRPDRQAYEPPPPPAYRTGSLKPNPASPLPASPYGGPTPASYTTASTPAGPAFPVQVKVAQPVRGCGPPRRGASQASGPLPGPHFPLPGRGEVWGPGYRSQREPGPGAKEEAAGVSGPAGRGRGGEHGPQVPLSQPPEDELDRLTKKLVHDMNHPPSGEYFGQCGGCGEDVVGDGAGVVALDRVFHVGCFVCSTCRAQLRGQHFYAVERRAYCEGCYVATLEKCATCSQPILDRILRAMGKAYHPGCFTCVVCHRGLDGIPFTVDATSQIHCIEDFHRKFAPRCSVCGGAIMPEPGQEETVRIVALDRSFHIGCYKCEECGLLLSSEGECQGCYPLDGHILCKACSAWRIQELSATVTTDC
Which binding does the source give for B1 here?
Its binding is “no binding”.
